Assay results from patent publication US12338279B2, “Selective and potent inhibitory antibodies of myostatin activation” (SCHOLAR ROCK, INC., priority 2022, dated 2025).

Tests used:
human pro-myostatin = assay: SEC-MALS binding stoichiometry
Experimental: A combination of size exclusion chromatography and multi-angle light scattering (SEC-MALS) was used to determine the approximate mass and therefore the oligomeric state of the antibodies and their stoichiometry of binding to human promyostatin. The monoclonal antibody (mAb) or its Fab fragment was mixed with 50 μg of human pro-myostatin at a ratio of 1:1, 2:1 or 3:1 (antibody to antigen) for at least 24 hours at room temperature for immune complexes to form, filtered and injected into an analytical SEC column (Waters HPLC with a Superdex 200 10/300), flowed through a refractive index detector and then a miniDAWN® multi-angle light scattering detector to determine the mass. A full-length human-pro-myostatin with an N-terminal His6 tag (SEQ ID NO: 941) was used to express pro-myostatin in HEK cells. The signal peptide present in the construct is cleaved during biosynthesis. The resulting recombinant human pro myostatin was purified using the His6 tag (SEQ ID NO: 941) and used for the experiment.

[1] = AC-SINS self-interaction (aggregation behavior); type: physicochemical; settings: cutoff shift >5 nm in plasmon wavelength
Summary of the method: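 Antibodies captured on gold nanoparticles coated with polyclonal anti-human-mAb antibodies; self-association shifts the plasmon absorbance maximum toward red. Value reported as plasmon wavelength, with 530 nm as unaggregated reference; shift >5 nm taken as self-interacting.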

total myostatin in serum [2] = assay: Total serum myostatin, liraglutide study; type: in vivo, mouse; settings: for Myostatin (total serum myostatin): terminal bleed serum
Experimental: Levels of the antibodies' exposure to myostatin in the serum was measured by assaying for total myostatin in the serum (Lakshman (2009) Cellular Endocrinol 302:26). […] The samples were then neutralized and assayed for mature growth factor.

[3] = test system: male C57/BL6 mice on high fat diet; assay: Diet-induced obesity model, semaglutide with Ab109, withdrawal and continuous arms (Example 6); type: in vivo, mouse
Experimental: Male C57/BL6 male mice (n=8/group) were either fed regular mouse chow (Group 1) or placed on a 60% high fat diet at six weeks of age and maintained on the 60% high fat diet until 21 weeks of age (Groups 2-8), at which time the study began (day 0). On day 0, animals in groups 2-8 were switched to a 45% high fat diet and maintained on the 45% high fat diet until the animals were terminated. […] Body weight was measured three times per week and qNMR measurements of lean mass and fat mass were obtained on the days set forth.
Animals in groups 3 and 4 were dosed with semaglutide weekly for 14 days, then terminated. Animals in groups 5 and 6 (weight regain groups), were treated with semaglutide for 35 days, then the semaglutide treatment was ended while the myostatin activation inhibiting antibody treatment continued until the animals were terminated on day 63. The animals in Groups 7 and 8 were treated with semaglutide for 63 days, i.e., they remained on semaglutide until the study terminated on day 63.
At termination, left and right gastrocnemius muscles were removed and frozen; the liver was weighed, one lobe was fixed, and the remainder was frozen; epididymal adipose tissue was removed and weighed; subcutaneous adipose tissue was removed and weighed; and a terminal serum bleed was obtained.

total myostatin in serum [4] = assay: Total serum myostatin (PD) in obese mice with or without semaglutide (Example 8); type: in vivo, mouse; settings: 0.1 to 3 mg/kg, alone or with semaglutide; FIG. 16B
Experimental: (§1) Male 19 week old C7/BL6 mice fed a high fat diet to induce obesity (DIO-B6-M mice, were evaluated for the effect of the combination of antibody and semaglutide on the exposure of the antibody to the target antigen (PK) and the total myostatin serum level (PD), as shown in Table 25. Animals were dosed with antibody intraperitoneally on days 0, 7, and 14 and were dosed with semaglutide subcutaneously daily throughout the study. Exposure of the antibody to immobilized promyostatin was determined by ELISA. Total serum myostatin was also measured by ELISA. The study concluded on day 22, when terminal bleeds were obtained.

[5] = test system: free latent myostatin in serum; assay: Serum free latent myostatin (not bound by antibody); type: in vivo, mouse
Description: Serum clearance: As used herein, the term “serum clearance” or “clearance” refers to a relative pharmacokinetic/pharmacodynamic behavior pertaining to changes in serum concentrations (e.g., circulating levels) of an analyte (e.g., target protein or protein complex) over time. When the analyte being measured accumulates in the serum, it is said to have slow clearance. By contrast, when the analyte being measured is removed (“cleared”) rapidly from the serum, it is said to have fast clearance. Serum clearance in vivo may occur via multiple mechanisms, including, for example, targeted degradation, Fc-mediated internalization, etc. For example, serum clearance of circulating myostatin may be measured with an assay for determining binding of an antibody to free myostatin in serum (circulating myostatin that is not bound by the antibody). Such an assay may involve immobilizing a biotinylated capture antibody known to bind pro and latent myostatin, before adding a sample comprising myostatin to test the ability of the antibody to bind to the free myostatin and adding a detection antibody with a detectable marker.
In another embodiment, a pharmacodynamic assay, can be performed by measuring the binding of the antibodies to serum free latent myostatin (i.e., circulating latent myostatin that is not bound by the antibody). […]
as §1

B1: Ab109: anti-pro/latent myostatin antibody; CDRs in Tables 2d-f, variable domains Table 3, chains Table 4 (antibody)
heavy: EVQLVESGGGLVQPGGSLRLSCAASGFTFSSYGMSWVRQAPGKGLELVASFTGSGGTYYPDSVKGRFTISRDNAKNSLYLQMNSLRAEDTAVYYCARDLLIRFLEWSHYYGMDVWGQGTTVTVSSASTKGPSVFPLAPCSRSTSESTAALGCLVKDYFPEPVTVSWNSGALTSGVHTFPAVLQSSGLYSLSSVVTVPSSSLGTKTYTCNVDHKPSNTKVDKRV[human IgG4 Fc with S228P (EU numbers) left out]
light: DIVMTQSPLSLPVTPGEPASISCRSSQSLLHSSGHNFLHWYLQKPGQSPQLLIYEVSNRVSGVPDRFSGSGSGTDFTLKISRVEAEDVGVYYCMQQTQYPPTFGGGTKVEIKRTVAAPSVFIFPPSDEQLKSGTASVVCLLNNFYPREAKVQWKVDNALQSGNSQESVTEQDSKDSTYSLSSTLTLSKADYEKHKVYACEVTHQGLSSPVTKSFNRGEC
SEC-MALS Result (kDa) (human pro-myostatin; input ratio mAb:pro-myostatin 1:1): 311.4 kDa
SEC-MALS Result (kDa) (human pro-myostatin; input ratio mAb:pro-myostatin 3:1): 319.6 kDa
aggregation behavior by AC-SINS [1]: did not display aggregation behavior
Myostatin (total serum myostatin) (total myostatin in serum [2]; antibody 1 mg/kg/week + liraglutide 0.06 mg/kg q.d.): 12.2 ng/mL
Myostatin (total serum myostatin) (total myostatin in serum [2]; antibody 3 mg/kg/week + liraglutide 0.06 mg/kg q.d.): 4.7 ng/mL
Myostatin (total serum myostatin) (total myostatin in serum [2]; antibody 10 mg/kg/week + liraglutide 0.06 mg/kg q.d.): 5.6 ng/mL
Myostatin (total serum myostatin) (total myostatin in serum [2]; antibody 20 mg/kg/week + liraglutide 0.06 mg/kg q.d.): 4.5 ng/mL
total serum myostatin (total myostatin in serum [2]; liraglutide-treated mice, Table 21, FIG. 15B): reduced total serum myostatin concentrations compared to Ab2; also recorded: decrease in serum myostatin
gastrocnemius muscle weight ([3]; 14 days of semaglutide treatment, group 4, FIG. 14E): preserved the gastrocnemius muscle weight
further reduction of fasting blood glucose ([3]; Ab109 in conjunction with semaglutide, FIG. 14I): approximately 20%
liver weight ([3]; Ab109 in conjunction with semaglutide, FIG. 14J): reduced liver weight
fat mass loss ([3]; Ab109 with semaglutide, FIG. 14H): enhanced fat mass loss
lean mass ([3]; Ab109 with semaglutide, FIGS. 14B, 14C, 14H): continued to increase their lean mass throughout the duration of the study; also recorded: had more lean mass than the animals treated with hIgG and semaglutide; also recorded: reversed lean mass loss
fat mass regain after semaglutide withdrawal ([3]; FIG. 14D): regained less fat mass and regained it at a slower rate than those treated with control IgG
body weight regain after semaglutide withdrawal ([3]; groups 5 and 6, FIG. 14A): regained weight at the same rate whether they were treated with hIgG or Ab109
lean mass after semaglutide withdrawal ([3]; weight regain groups 5 and 6, FIG. 14B): gained more lean mass than those treated with hIgG after semaglutide was withdrawn
serum total myostatin (PD) (total myostatin in serum [4]): not affected by the presence of semaglutide
free latent myostatin levels in the serum ([5]; 2 mg/kg and 20 mg/kg doses, FIG. 17): reduce free latent myostatin levels in the serum
serum free latent myostatin (not bound by antibody) ([5]; 0.1 to 3 mg/kg, 22 days, presence or absence of semaglutide, FIG. 16C): reduced below the level of quantitation

“Also recorded” adds a separate entry of the source.
